According to the supplement of paper PMC5499739:
Over roughly 16,000 sequences, “Z-score” has its median near -0.37; the highest 2% begin near 3.2. The list shows a part of the results.

System: RBM10 RRM1-ZnF (GST-tagged construct)
Test: RNAcompete 7-mer binding Z-score; higher = stronger binding preference
In short: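 In 1 ml Hepes pH 7.8 buffer with KCl, NaCl, glycerol, DTT, BSA and glutathione Sepharose beads, GST-tagged RBM10 constructs (20 pmol) were incubated for 30 min at 4°C with 1.5 nmol of a designed pool of 241 399 RNAs up to 41 nt. Four 2-min washes at 4°C followed, and bound RNA was detected by microarray hybridisation. Heptamer motif enrichment was expressed as a one-sided Z-score across probes containing each motif.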

Sequence	RNAcompete 7-mer binding Z-score
CCCACUC	-0.578
GCCACAC	-0.37
AGCGAGU	0.826
CCAUGUG	-0.454
AGGUCCG	-0.266
GCCGCAG	-0.275
AGAGGCC	-0.629
UAGCACC	-0.581
AACUUUA	-0.815
ACAAUGG	1.33
UUUGCAC	-0.623
CAUUCAG	-0.646
CGCUGGU	0.332
CUGAUGG	0.55
GAAAUCA	-0.415
CCGUUUG	-0.85
UUUCCUA	-0.889
CGAGCAA	-0.0285
CCAGGAG	0.758
GUCGUGC	-0.181
CUGAGGU	0.842
UUGCCUG	-0.642
UAGUUCG	-0.571

Sequence	RNAcompete 7-mer binding Z-score
CCGAAGU	-0.431
CCGGUGG	0.988
UUAAGAU	-0.422
UGAAACU	-0.552
UACAAUU	-0.591
CCGAGGG	0.943
UACCAUU	-0.737
CGCAUUG	-0.347
UGGCAAU	-0.022
AUACAGC	-0.503
CAGCUUU	-0.821
CCAAAGU	-0.604
UGUCGGU	0.248
GACCAGA	-0.233
GUCUCGC	-0.607
AGUGAAG	1.64
CCAGCCU	-0.714
UCCGGGG	1.4
AGAAAGU	0.345
UAACCUU	-0.824
UACGCCU	-0.688
UCGUACU	-0.539
UGCCUCU	-0.789

Sequence	RNAcompete 7-mer binding Z-score
GGUCUCC	-0.113
CUUUGAU	-0.73
GUACCUA	-0.5
GCCCUUC	-0.724
UACUUCU	-0.815
CCUUAGA	-0.694
ACUGCUC	-0.902
AGCAAAC	-0.152
AACUUCA	-0.74
CCCGAAG	-0.597
UGUGCGU	0.0885
AACGUGA	0.14
ACAGUAG	0.29
UGUAUUC	-0.587
CCGCAUG	-0.383
UUGGAUG	1.73
CUUCAGA	-0.909
CUAUCAC	-0.681
CGACUCC	-0.88
GGACACA	0.8
GUAUGCC	-0.363
AACACCA	-0.584
GGUUUGG	3.62

Sequence	RNAcompete 7-mer binding Z-score
UUGGGCC	0.452
AAGUGUC	-0.402
UUUAUAU	-0.532
AACAUAC	-0.578
AAGAAGC	0.189
AGAGUCA	-0.0934
GGCAACG	0.923
UCUAAUG	-0.545
UCGCUAU	-0.629
ACCUGAG	-0.327
GUGUCUU	-0.246
GUGCACG	0.426
UGUAAAC	-0.272
AGGGGUU	2.52
GAACUGG	1.24
GCUAUGA	-0.217
UUAAUUU	-0.74
CUGGGGC	0.901
CGAAUAA	-0.441
UCAAUCA	-0.503
CAAUGAC	-0.617
UCUUUCU	-0.915
CAUCGUU	-0.659

Sequence	RNAcompete 7-mer binding Z-score
CUGUAGA	-0.246
GUGACUG	0.491
ACGCCCU	-0.532
UAUGGAG	1.67
AAUACGU	-0.311
ACGCAAA	-0.36
AAGGGGU	4.48
GGCGACA	0.823
CGUCGUU	-0.47
CGAAAUC	-0.737
CGAAAUU	-0.737
AGAUCCG	-0.824
CUGCUAC	-0.607
GAAAACA	0.069
GCGCUCC	-0.506
ACAGUAC	-0.535
CGAUAUA	-0.558
ACGGCGC	-0.295
GAAGAAG	2.82
UGACGUG	0.189
UAUACAA	-0.292
AGCGCAG	0.322
AACGGCC	-0.574

Sequence	RNAcompete 7-mer binding Z-score
UGUGGAA	2
UGAGGCC	0.0625
ACACCAA	-0.665
UGAUAGA	0.192
CUGUUUA	-0.815
GGGGAUA	3.45
AGUCAAA	-0.392
GCCCGUU	-0.642
AUUCGUA	-0.61
GGGGCCA	0.92
UCCUGUG	-0.357
UACCAAG	-0.461
ACCUCGC	-0.496
CUAAUCG	-0.321
CCGAGCC	-0.665
CGAGCGC	-0.253
GGGAACU	1.29
CAUUACU	-0.779
AUUCGCG	-0.49
AGUUCAG	-0.155
UAGAAGG	3.12
GUUGAAG	1.99
UACUGAU	-0.558

Sequence	RNAcompete 7-mer binding Z-score
UCAGCGU	-0.373
GGAGUUU	1.19
UAGUGGA	1.54
ACUCAAA	-0.675
AAGUUGC	-0.308
CCAAAUG	-0.571
AGCGCCG	-0.448
AACCUUG	-0.886
UCGAACG	-0.149
AACGCUU	-0.724
UAGAUCC	-0.529
UAAGCGU	-0.0447
AGAAUAG	0.514
GGUCUUC	-0.21
AACGAAC	-0.444
CCCUGCA	-0.789
AGUGCUA	-0.0577
GCACCGA	-0.266
AACCCCU	-0.698
GUGAAAU	0.758
UAGCCAU	-0.72
CCCCGUU	-0.704
AAACGGG	2.75

Sequence	RNAcompete 7-mer binding Z-score
AAUGAUU	-0.347
CGGCUCG	-0.21
UUGGCUG	0.0918
AGGAGUG	2.91
CCUCACC	-0.509
AGGUAUU	0.618
GGUCCGA	0.0625
AUAUCAC	-0.613
UACUAGU	-0.535
UGACGGC	0.228
AAGUCGU	-0.194
AGGGCCU	-0.142
UCUCAUC	-0.854
AAUCCGC	-0.72
CAGGAGC	1.24
GGACAAU	0.927
AUUUCAC	-0.724
CUGACUA	-0.405
UGUUUUC	-0.73
UCGGGGU	2.07
AGCUGCG	-0.0577
GCAAGCG	0.621
UGAGAUA	0.0853
